# Measured values published in PubChem BioAssay (NCATS).
# Several values for one entry are separate records, joined by “and”; a condition that tells them apart may be missing. Equal values may be shown once. Inconclusive results, whose numbers are uncertain, are shown with a selection of clear calls. For some of these results: Potencies beside an inconclusive call are fits to weak or partial responses and may not hold up. Activity calls are given as the source filed them. Unless noted, the call rests on the fitted dose curve; in most records, active means well fitted curve in the direction sought with a large enough effect; inconclusive means small, poorly fitted or top-dose-only effect, or another doubt; inactive means no such curve, though single readings can be large; an effect the other way counts as inactive or inconclusive.
# How the values were obtained:
# [1] = qHTS Assay for Identification of Small Molecule Agonists for Hypoxia Response Element Signaling Pathway (AID 914; active means well fitted activation curve with a large enough effect in the signal ratio, with a control signal flat, not every such curve was filed as active; inconclusive means small, poorly fitted or top-dose-only effect, or effect the other way, or a change in a side signal; the % refers to the signal ratio; further: potency means the concentration at half of the fitted maximal effect); conditions: ME-180 (cervical carcinoma) HRE-bla reporter, beta-lactamase ratio, CoCl2, 17 h; activation: active compounds read high
# Procedure, shortened: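 HRE-bla ME-180 cells, overnight plating in Opti-MEM with 0.5% dialyzed FBS; cpd titration + EC50 CoCl2, 17 h, 37 degrees Celsius; CCF4 2.5 h RT; 460/530 nm ratio; AC50.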
# [2] = target: Ubiquitin carboxyl-terminal hydrolase 1 (Homo sapiens) (UniProt O94782); assay: Inhibitors of USP1/UAF1: Pilot qHTS (AID 504865); conditions: purified USP1/UAF1, Ub-rhodamine cleavage fluorescence; series mostly up to 54.9 µM; further: potency means the concentration at half of the fitted maximal effect;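 further: rhodamine fluorescence freed from ubiquitin-rhodamine substrate followed over time; nearly all actives have a fitted effect of over 35% in size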; on activity change, negative = inhibition: top concentration of the series differs between compounds; on the % scale 0 is the no-effect control and ±100 the full control effect
# Procedure, shortened: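 In 50mM HEPES pH 7.8 containing 0.5mM EDTA, 1mM TCEP, 0.1 mg/ml BSA and 0.01% Tween-20, 1nM USP1/UAF1 is exposed to compound for 15 min, then Ub-Rho (150nM final) is added and fluorescence is read over time.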
# [3] = Primary qHTS for small molecule stabilizers of the endoplasmic reticulum resident proteome: Secreted ER Calcium Modulated Protein (SERCaMP) assay (AID 1508630); conditions: SH-SY5Y GLuc-SERCaMP (Gaussia luciferase released on ER calcium loss) secretion, thapsigargin, luminescence; activity change, negative = inhibition: at 38.4 µM (top of the series) unless noted; further: potency means the concentration at half of the fitted maximal effect; on activity change, negative = inhibition: on the % scale 0 is the no-effect control and ±100 the full control effect
# Procedure, shortened: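 The SH-SY5Y reporter protocol was run at 3 concentrations up to 38.3 uM (primary) or 11 concentrations (follow-up): 16 h compound, 100 nM thapsigargin for 4 h, then extracellular luciferase luminescence.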
# [4] = target: 3',5'-cyclic-AMP phosphodiesterase 4B (Homo sapiens) (UniProt Q07343); assay: qHTS Assay for Inhibitors of PDE-IV (AID 607; active means well fitted activation curve with a large enough effect in the main read-out, with a control signal flat, not every such curve was filed as active; inconclusive means small, poorly fitted or top-dose-only effect, or effect the other way, or a change in a side signal; further: potency means the concentration at half of the fitted maximal effect; on activation (PDE inhibition): % of control where 0% means no effect); conditions: HEK293 ACTOne CNG channel cells, membrane potential fluorescence; activation (PDE inhibition): at 22.9 µM (top of the series)
# Procedure, shortened: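 Cell-based read-out of cAMP via a modified cyclic nucleotide-gated channel and membrane potential dye (535/590 nm) in HEK293 cells expressing PDE4 endogenously. Compounds tested up to 22.9 uM final; 100 uM RO 20-1724 reference.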
# [5] = target: Cytochrome P450 2D6 (Homo sapiens) (UniProt P10635); assay: qHTS Assay for Inhibitors and Substrates of Cytochrome P450 2D6 (AID 891); conditions: recombinant CYP2D6, luciferin-ME EGE luminescence; series mostly up to 57.1 µM;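 further: luciferin methyl ether substrate demethylated by CYP2D6 with NADPH regeneration; potency means the concentration at half of the fitted maximal effect; nearly all actives have a fitted effect of over 60% in size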
# Procedure, shortened: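 Luminescent read-out of luciferin formed by 5 nM human CYP2D6 demethylating 30 uM Luciferin-ME EGE (Km level) over 60 min at room temperature after NADPH regeneration addition. Data normalized to full inhibition by 1.43 uM quinidine.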
# [6] = target: Mitogen-activated protein kinase 10 (Mus musculus) (UniProt Q61831); assay: JNK3 AlphaScreen Assay (AID 530; active means well fitted curve in either direction with a large enough effect, not every such curve was filed as active; inconclusive means small, poorly fitted or top-dose-only effect, or another doubt;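 further: kinase came from lysate of stimulated human HepG2 cells; signal reports phosphorylation of biotinylated GST-cJun 1-79 at Ser73 with 10 µM ATP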; further: potency means the concentration at half of the fitted maximal effect; on activity change, negative = inhibition: on the % scale 0 is the no-effect control and ±100 the full control effect); conditions: JNK3 lysate, c-Jun phosphorylation; activity change, negative = inhibition: at 57.1 µM (top of the series)
# Procedure, shortened: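 Kinase buffer: 20 mM Tris-HCl pH 7.6, 10 mM MgCl2, 1 mM DTT, 0.1 mM Na3VO4, 0.01% Tween-20; ATP 10 uM. Substrate biotin-GST-cJun(1-79), enzyme from activated HepG2 lysates. Detection by Ser73 phospho-antibody AlphaScreen.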
# [7] = qHTS Assay for Identification of Small Molecule Antagonists for NFkB Signaling Pathway (AID 895; active means well fitted inhibition curve with a large enough effect in the signal ratio, with a control signal flat, not every such curve was filed as active; inconclusive means small, poorly fitted or top-dose-only effect, or effect the other way, or a change in a side signal; the % refers to the signal ratio; further: on the % scale 0 is the no-effect control and ±100 the full control effect); conditions: NFkB beta-lactamase reporter cells, FRET ratio 460/530, stimulated with 10 pM TNF alpha; activity change, negative = inhibition: at 38.3 µM (top of the series)
# Procedure, shortened: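 Beta-lactamase reporter read-out (460 and 530 nm emission ratio, 405 nm excitation, 2 hrs substrate loading RT) after 5 hr stimulation with 10 pM TNF alpha in compound-treated NFkB-bla ME-180 cells in low-serum medium.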
# [8] = qHTS Assay for Identification of Small Molecule Agonists for Thrombopoietin (TPO) Signaling Pathway (AID 917); conditions: TPO signaling pathway reporter cells, agonist qHTS, stimulated with TPO at its EC50; series mostly up to 38.5 µM; further: potency means the concentration at half of the fitted maximal effect
# Procedure, shortened: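 Cell-based luciferase reporter screen. Mouse Ba/F3 line stably expressing human TPO receptor; IL-3 removed overnight before plating. Co-treatment with compound and EC50 TPO (26 pM), 24 hrs at 37 C, then luminescence.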
# [9] = target: Muscarinic acetylcholine receptor M1 (Rattus norvegicus) (UniProt P08482); assay: qHTS Assay for Antagonists of Acetylcholine Muscarinic M1 Receptor: Measurement of IP-One Response (AID 944); conditions: CHO-M1 cells, IP-One HTRF, antagonist mode; series mostly up to 46.1 µM; further: potency means the concentration at half of the fitted maximal effect; nearly all actives have a fitted effect of over 75% in size
# [10] = target: Cytochrome P450 2C9 (Homo sapiens) (UniProt P11712); assay: qHTS Assay for Inhibitors and Substrates of Cytochrome P450 2C9 (AID 883); conditions: recombinant CYP2C9, luciferin-H luminescence, 60 min; series mostly up to 57.1 µM; further: potency means the concentration at half of the fitted maximal effect; nearly all actives have a fitted effect of over 60% in size
# Procedure, shortened: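 Turnover of Luciferin-H (100uM, KM) by 10nM human CYP2C9 was measured over 60 min at 37C with NADPH regeneration; inhibitors and some substrates reduce luminescence. Data normalized to sulphaphenazole 57uM.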
# Tags describe the fitted curve by direction and shape or compound fluorescence and quenching.
# UniProt O94782, sequence (O94782 whole entry, looked up): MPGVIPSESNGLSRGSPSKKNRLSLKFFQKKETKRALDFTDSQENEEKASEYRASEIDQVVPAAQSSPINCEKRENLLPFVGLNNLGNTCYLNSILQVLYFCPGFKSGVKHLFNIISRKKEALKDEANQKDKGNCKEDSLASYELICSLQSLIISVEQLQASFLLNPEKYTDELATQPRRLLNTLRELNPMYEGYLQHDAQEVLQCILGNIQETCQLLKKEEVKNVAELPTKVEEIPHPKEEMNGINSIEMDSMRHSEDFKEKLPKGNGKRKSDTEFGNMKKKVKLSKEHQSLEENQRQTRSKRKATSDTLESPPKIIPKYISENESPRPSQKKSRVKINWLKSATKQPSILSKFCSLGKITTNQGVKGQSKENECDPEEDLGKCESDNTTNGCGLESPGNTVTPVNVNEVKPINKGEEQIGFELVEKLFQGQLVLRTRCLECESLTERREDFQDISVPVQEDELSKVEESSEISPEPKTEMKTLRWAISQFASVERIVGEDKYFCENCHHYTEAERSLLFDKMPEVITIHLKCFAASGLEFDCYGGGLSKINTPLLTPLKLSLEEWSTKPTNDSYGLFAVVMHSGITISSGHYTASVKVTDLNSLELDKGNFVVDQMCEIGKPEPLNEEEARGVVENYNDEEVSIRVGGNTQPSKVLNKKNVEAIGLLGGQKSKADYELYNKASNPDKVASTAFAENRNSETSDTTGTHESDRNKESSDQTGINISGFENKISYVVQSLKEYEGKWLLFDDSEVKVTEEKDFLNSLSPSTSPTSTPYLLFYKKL
# UniProt Q07343, sequence (Q07343 whole entry, looked up): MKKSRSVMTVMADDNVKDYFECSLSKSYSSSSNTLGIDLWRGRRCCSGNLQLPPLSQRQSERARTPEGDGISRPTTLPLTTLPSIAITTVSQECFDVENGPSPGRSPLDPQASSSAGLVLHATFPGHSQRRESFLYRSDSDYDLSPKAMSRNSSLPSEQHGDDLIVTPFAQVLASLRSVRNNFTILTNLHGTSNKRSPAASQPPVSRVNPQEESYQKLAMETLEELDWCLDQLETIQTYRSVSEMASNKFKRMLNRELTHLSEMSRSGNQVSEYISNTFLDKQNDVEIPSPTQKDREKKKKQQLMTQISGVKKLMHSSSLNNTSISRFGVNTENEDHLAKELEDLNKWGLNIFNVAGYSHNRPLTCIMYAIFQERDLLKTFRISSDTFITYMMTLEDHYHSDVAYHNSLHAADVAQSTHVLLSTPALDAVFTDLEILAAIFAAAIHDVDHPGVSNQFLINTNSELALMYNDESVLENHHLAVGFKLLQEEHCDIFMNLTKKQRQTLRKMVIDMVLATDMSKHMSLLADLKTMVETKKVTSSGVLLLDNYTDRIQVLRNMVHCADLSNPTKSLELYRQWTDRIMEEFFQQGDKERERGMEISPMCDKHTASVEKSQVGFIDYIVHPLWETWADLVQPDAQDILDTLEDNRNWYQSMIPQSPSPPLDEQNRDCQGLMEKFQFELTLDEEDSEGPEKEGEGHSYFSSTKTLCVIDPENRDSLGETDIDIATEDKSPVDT
# UniProt P08482, sequence (P08482 whole entry, looked up): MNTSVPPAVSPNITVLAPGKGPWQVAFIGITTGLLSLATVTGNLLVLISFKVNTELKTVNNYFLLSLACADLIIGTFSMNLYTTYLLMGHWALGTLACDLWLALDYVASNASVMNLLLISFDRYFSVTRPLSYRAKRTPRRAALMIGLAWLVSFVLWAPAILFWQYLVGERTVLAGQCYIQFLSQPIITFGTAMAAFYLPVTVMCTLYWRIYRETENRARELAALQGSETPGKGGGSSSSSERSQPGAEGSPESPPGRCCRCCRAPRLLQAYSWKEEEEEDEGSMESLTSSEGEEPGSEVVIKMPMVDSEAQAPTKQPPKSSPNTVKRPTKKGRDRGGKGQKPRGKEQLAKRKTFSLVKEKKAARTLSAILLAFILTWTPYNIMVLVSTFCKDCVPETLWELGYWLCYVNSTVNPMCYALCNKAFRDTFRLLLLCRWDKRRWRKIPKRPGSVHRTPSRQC
# UniProt P10635, sequence (P10635 whole entry, looked up): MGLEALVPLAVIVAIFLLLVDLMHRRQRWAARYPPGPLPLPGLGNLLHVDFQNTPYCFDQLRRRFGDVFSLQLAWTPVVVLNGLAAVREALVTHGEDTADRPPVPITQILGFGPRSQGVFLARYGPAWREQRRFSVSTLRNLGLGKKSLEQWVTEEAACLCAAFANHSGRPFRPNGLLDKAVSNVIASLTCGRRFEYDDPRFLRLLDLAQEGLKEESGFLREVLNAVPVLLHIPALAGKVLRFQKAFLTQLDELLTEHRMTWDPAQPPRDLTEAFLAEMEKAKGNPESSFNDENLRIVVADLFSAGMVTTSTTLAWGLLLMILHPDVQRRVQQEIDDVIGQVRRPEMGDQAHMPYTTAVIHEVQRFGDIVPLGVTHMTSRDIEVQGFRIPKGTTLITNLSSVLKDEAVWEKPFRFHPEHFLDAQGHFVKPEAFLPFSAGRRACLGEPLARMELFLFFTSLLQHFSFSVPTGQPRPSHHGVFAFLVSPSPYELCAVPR
# UniProt P11712, sequence (P11712 whole entry, looked up): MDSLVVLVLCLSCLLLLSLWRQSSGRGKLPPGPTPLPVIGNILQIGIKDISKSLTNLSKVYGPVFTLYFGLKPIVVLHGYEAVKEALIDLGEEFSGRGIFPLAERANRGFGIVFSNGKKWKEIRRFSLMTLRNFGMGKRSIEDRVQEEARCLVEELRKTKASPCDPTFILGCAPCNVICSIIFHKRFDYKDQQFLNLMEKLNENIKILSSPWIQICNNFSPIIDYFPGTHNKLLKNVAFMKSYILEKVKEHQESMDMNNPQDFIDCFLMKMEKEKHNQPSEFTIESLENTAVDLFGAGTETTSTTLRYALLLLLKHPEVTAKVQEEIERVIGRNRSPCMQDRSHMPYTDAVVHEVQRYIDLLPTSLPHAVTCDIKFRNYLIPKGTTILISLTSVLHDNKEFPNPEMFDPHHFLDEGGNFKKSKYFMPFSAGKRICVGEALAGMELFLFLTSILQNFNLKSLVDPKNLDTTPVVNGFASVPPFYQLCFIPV
smiles,measurement,setting,value
Cc1cccc(CNc2ccnc(-c3cccc(NS(C)(=O)=O)c3)n2)c1,Potency,[1],"inconclusive: 3.16 µM [inhibitor, partial curve]"
same,Potency,[2],"inconclusive: 50.1 µM [inhibitor, partial curve]"
same,Potency,[3],"inconclusive: 31.6 µM [inhibitor, single point]"
OCCNCCCOc1cccc(Cl)c1Cl,Potency,[4],"inconclusive: 15.1 µM [activator, partial curve]"
same,Potency,[5],active: 158 nM
same,Potency,[2],inactive
same,Potency,[3],"inconclusive: 1 µM [inhibitor, full curve]"
Cc1cccc(CNc2nc(-c3ccoc3)nc3ccccc23)c1,Potency,[4],"inconclusive: 10 µM [activator, partial curve]"
same,Potency,[1],"inconclusive: 0.794 µM [inhibitor, full curve]"
same,Potency,[2],"inconclusive: 50.1 µM [inhibitor, partial curve, poor fit]"
same,Potency,[3],"inconclusive: 31.6 µM [inhibitor, single point]"
COc1cccc(OC)c1OCCNC[C@@H]1COc2ccccc2O1,Potency,[6],"inconclusive: 10 µM [activator, partial curve, poor fit]"
same,Potency,[4],"inconclusive: 5.01 µM [rising, partial curve] and inconclusive: 15.1 µM [rising, partial curve]"
same,Potency,[7],inactive
same,Potency,[8],"inconclusive: 10 µM [inhibitor, single point]"
same,Potency,[9],active: 17.8 µM
same,Potency,[3],"inconclusive: 7.94 µM [inhibitor, partial curve, poor fit]"
O=C(NCCCN1CCCCCC1)[C@@H](c1ccccc1)C1CCCCC1,Potency,[6],"inconclusive: 3.16 µM [activator, full curve, poor fit]"
same,Potency,[4],"inconclusive: 1.51 µM [rising, full curve]"
same,Potency,[3],"inconclusive: 6.31 µM [inhibitor, partial curve, poor fit]"
Cc1noc(NS(=O)(=O)c2cccc3c(N(C)C)cccc23)c1C,Potency,[4],inactive
same,Potency,[2],"inconclusive: 44.7 µM [inhibitor, partial curve, poor fit]"
same,Potency,[3],inactive
COc1ccc(CNc2ncncc2-c2ccccc2OC)c(OC)c1,Potency,[4],"inconclusive: 10 µM [rising, partial curve]"
same,Potency,[10],"inconclusive: 794 nM [inhibitor, single point]"
same,Potency,[2],inactive
same,Potency,[3],"inconclusive: 28.2 µM [inhibitor, single point]"
COc1cccc(Cn2c(=O)c(-c3ccccc3)nc3cnc(OC)nc32)c1,Potency,[4],"inconclusive: 12.6 µM [rising, single point]"
same,Potency,[2],inactive
same,Potency,[3],inactive
C#C[C@]1(O)CC[C@H]2[C@H]3CCC4=Cc5oncc5C[C@]4(C)[C@@H]3CC[C@]21C,Potency,[6],"inconclusive: 0.00794 µM [activator, full curve, poor fit]"
same,"activity change, negative = inhibition",[7],inconclusive: -35.3%
same,Potency,[8],"inconclusive: 12.6 µM [inhibitor, single point]"
same,Potency,[9],active: 7.94 µM
same,Potency,[3],inactive
CC(C)Oc1cccc(-n2c(CCc3c[nH]c4ccc(Br)cc34)nc3ccccc3c2=O)c1,Potency,[4],"inconclusive: 19 µM [activator, partial curve, poor fit]"
same,Potency,[2],"inconclusive: 17.8 µM [inhibitor, full curve, poor fit]"
same,Potency,[3],"inconclusive: 10 µM [inhibitor, single point]"
N#CCCn1c(=O)c(-c2cc(F)cc(F)c2)nc2cnc(Oc3ccccc3)nc21,Potency,[6],inactive
same,Potency,[3],"inconclusive: 31.6 µM [inhibitor, single point]"
